Whole data set: some 16,000 sequences, median “Z-score” near -0.37, cut for the highest 2% near 3.1. This is one part of the list.
These sequences were tested on RBM10 RRM1-ZnF-RRM2 (GST-tagged construct) (assay: RNAcompete 7-mer binding Z-score; higher = stronger binding preference).
Procedure, shortened: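 GST-tagged RBM10 constructs (20 pmol) and a designed pool of 241 399 RNAs up to 41 nt (1.5 nmol) were allowed to bind for 30 min at 4°C in 1 ml Hepes pH 7.8 buffer with glutathione Sepharose beads. After four 2-min washes at 4°C, bound RNA was identified by microarray hybridisation. Enrichment was scored per heptamer motif as a one-sided Z-score across the probes containing it.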

Sequence	RNAcompete 7-mer binding Z-score
GAUCGAA	-0.00512
GGUUUCA	0.304
GAGUCUA	-0.0161
GAAUUUC	-0.46
CCCGCCA	-0.646
UCAGUGA	0.428
ACUGCGA	-0.486
UAAUCCA	-0.577
AGUCUUC	-0.541
AAAACUG	-0.133
CACUCAG	-0.497
GUCUUCU	-0.683
CUUCCAC	-0.748
ACUGAGG	0.891
UGUUGAA	-0.0598
UCUUCAA	-0.785
CUCAUAG	-0.759
GCAUACC	-0.449
CAAAAUG	-0.187
CGAAUCC	-0.759
UCUAAGU	-0.431
CCCCUUG	-0.744
AAGCGCU	-0.413
AAACCAC	-0.493

Sequence	RNAcompete 7-mer binding Z-score
UCAACCC	-0.752
GUGGAUU	1.52
CCGAAAU	-0.708
UAAAGAU	-0.0925
AACCAUA	-0.61
UACCUUG	-0.755
CUUGUCU	-1.02
UCAAACA	-0.602
UAUUCGA	-0.57
GCGGGUU	2.54
CCACUUC	-0.89
GCCGCUC	-0.646
ACCUUUA	-0.952
GACGAAU	-0.0379
GUCACCU	-0.635
UCAGGUA	0.818
CGUACUG	-0.628
UACACCC	-0.77
AAUCGCC	-0.865
CGUUCAU	-0.646
UAGAGCU	-0.355
CAGUCUA	-0.497
ACUACAG	-0.3
ACCUUUG	-0.883

Sequence	RNAcompete 7-mer binding Z-score
UAGUCAA	-0.333
CCAGAGC	-0.231
GUUAUCC	-0.584
GGAAAUA	1.16
UUUCCCC	-0.723
GUAUUAG	0.712
AGUAUUC	-0.504
AUUCAGA	-0.162
AGGGCAU	1.43
UUACGUG	-0.151
UCAUUCG	-0.653
UGGAGGG	4.26
ACUGUGA	-0.34
UUGUGUU	-0.431
UUUUAUU	-0.646
GGAUAAC	1.24
AAAUGGU	2.73
GCUUGAA	-0.526
GUGACAU	0.181
AAAAGUC	-0.351
GAAGACU	-0.0743
UCGUCCU	-0.748
UACCUGG	-0.446
ACAAAAC	-0.329

Sequence	RNAcompete 7-mer binding Z-score
UUCCCAG	-0.504
UUCUGUG	-0.49
CCCAGUG	-0.158
GCUCGCC	-0.672
CGACAGU	-0.373
CCGCGAA	-0.734
UAUUCCG	-0.65
GCGCUCA	-0.439
GCGUUAA	-0.158
UUAUAGC	-0.639
GUGGGAG	3.99
GUGAGGA	2.73
UGGAUAU	0.876
CAGACAA	-0.402
UUGUAUA	-0.592
CGAAAGC	-0.428
GUGUGAA	0.829
ACAUCGU	-0.581
UCCGUCA	-0.734
GGCGCCG	-0.00512
GAAUACG	0.519
UAAAAAU	-0.457
GAGACGU	0.323
AUCAACG	-0.133

Sequence	RNAcompete 7-mer binding Z-score
GGUAACG	2.01
UUCAGAG	-0.315
GCGAGAU	0.312
UGCCUGA	-0.704
ACUCUGU	-0.956
GAAGUGC	0.461
GUGUCGG	0.709
CCGCUCU	-0.814
CUCUGGC	-0.785
CCUAGAA	-0.799
CAUAUUA	-0.486
CAUAGGA	0.756
ACGAGUA	0.443
GAGGCAU	1.03
GGAGAUU	1.07
UGAGGAG	1.94
GUCUCAA	-0.395
GACUCAA	-0.653
AGGUGGG	3.44
GACCUAA	-0.901
CCGGGGG	1.4
GUUAACA	0.232
GACAUAC	-0.202
UGCCGUC	-0.719

Sequence	RNAcompete 7-mer binding Z-score
UCCCUGG	-0.391
CUACGGC	-0.417
GUAUCCA	-0.122
CCGCGGG	0.814
GACCUGC	-0.945
GGAGGGA	3.6
AUUACAU	-0.431
GGAAGUU	1.2
UUGGGCU	1.19
CCACCCC	-0.643
ACCACAA	-0.511
AAGAUGC	-0.129
GCACGGA	0.942
AUUGAUA	-0.216
UAGAGGA	1.54
UCGCUCG	-0.486
CGCAACA	-0.468
AUCGUUA	-0.621
UUUGAAC	-0.602
ACCUGAC	-0.828
UUCAUCG	-0.777
CUUUUGU	-0.919
GGCGUCA	0.294
AUCUCGG	-0.57

Sequence	RNAcompete 7-mer binding Z-score
GCUGUCU	-0.795
CUUUGCU	-0.897
UGGCCAU	-0.18
CCAGGUC	-0.446
AUCAACA	-0.278
GGGUAUA	2.44
UCAAAAU	-0.541
CGCAACG	-0.0889
GUGACGU	0.683
GCUUCCC	-0.748
AGUACAC	-0.165
UUACUCC	-0.795
UGAAGCA	0.246
AACAGUC	-0.526
AAACUCU	-0.876
UCAUAUC	-0.613
CGAAAGG	1.98
AAUCCCG	-0.657
UAUGAAA	-0.246
UAGUGCA	0.21
GGGAUGA	3.59
GUAGUAU	-0.176
UUUUAUC	-0.763
AUGACGC	-0.592

Sequence	RNAcompete 7-mer binding Z-score
UCUGGGA	0.45
UUCUUUG	-0.621
CGGUCCC	-0.34
ACUUAGU	-0.479
AAGAUGU	0.13
UCGCGCC	-0.683
ACAUGAA	0.101
CUCUGCG	-0.916
GGAUUUG	0.796
CUGGUGU	0.0677
CUUCCAG	-0.497
CUUACAC	-0.708
GCCAGAU	-0.318
UCCACCG	-0.635
UUGUCCC	-0.701
GAGUAAC	0.122
GUGAUAA	0.261
GUCUUCA	-0.617
CCCGGCG	-0.0925
GAUCUCA	-0.643
UCUUACG	-0.821
CGUUAAU	-0.679
AGCGAGC	2.66
GAAGCCC	-0.774

Sequence	RNAcompete 7-mer binding Z-score
GUAUUUG	-0.147
GUCUUGG	-0.144
AUGACAA	-0.0707
GGGUCCA	0.771
UGUUAAU	-0.617
UAGCCAG	-0.0452
CGGGUGG	3.24
CUAUCAU	-0.675
ACUCACG	-0.708
CAGGGAC	1.6
UCCACAA	-0.508
UGACUGG	0.887
ACCUGAU	-0.938
AUAUCGG	0.264
GGACGCC	-0.154
GUUUCAG	-0.169
AGUGCAU	0.104
ACAAGUC	-0.643
UCAAGUC	-0.395
UUGGCUC	-0.526
CGAGCUA	-0.14
UUGAAAC	-0.566
CGGAGCG	1.45
AUUGGGA	2.99

Sequence	RNAcompete 7-mer binding Z-score
GCGUAAA	0.111
UUAUACU	-0.69
AUUAGCC	-0.777
UAGCUGC	-0.595
CCCUCAA	-0.737
UUACCCU	-0.846
AACCCUG	-0.639
CGUAUGG	1.12
UCAUCGA	-0.675
GUGGCCU	-0.0998
AGACUAA	-0.296
UCGGCAA	0.144
ACAGGAA	1.47
CAAUUGA	-0.158
GCUUCCU	-0.741
UCUGGGG	0.894
GCAGCUA	-0.195
ACUGUCG	-0.643

From the supplement of paper PMC5499739
